Source: paper PMC4336329 (PLoS ONE, 2015)
About 14,000 (4.5%) of roughly 310,000 compounds showed an effect of 50% or more. The effect is printed as a negative number. Some of the results follow.

Molecular target: human ether-à-go-go-related gene (hERG) potassium channel (human, UniProt Q12809)
Assay: primary screen, population patch clamp on CHO cells stably expressing hERG
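Further: peak tail current of the secondary pulse compared with the same well before compound.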

Sequence of human ether-à-go-go-related gene (hERG) potassium channel (Q12809 whole entry, looked up): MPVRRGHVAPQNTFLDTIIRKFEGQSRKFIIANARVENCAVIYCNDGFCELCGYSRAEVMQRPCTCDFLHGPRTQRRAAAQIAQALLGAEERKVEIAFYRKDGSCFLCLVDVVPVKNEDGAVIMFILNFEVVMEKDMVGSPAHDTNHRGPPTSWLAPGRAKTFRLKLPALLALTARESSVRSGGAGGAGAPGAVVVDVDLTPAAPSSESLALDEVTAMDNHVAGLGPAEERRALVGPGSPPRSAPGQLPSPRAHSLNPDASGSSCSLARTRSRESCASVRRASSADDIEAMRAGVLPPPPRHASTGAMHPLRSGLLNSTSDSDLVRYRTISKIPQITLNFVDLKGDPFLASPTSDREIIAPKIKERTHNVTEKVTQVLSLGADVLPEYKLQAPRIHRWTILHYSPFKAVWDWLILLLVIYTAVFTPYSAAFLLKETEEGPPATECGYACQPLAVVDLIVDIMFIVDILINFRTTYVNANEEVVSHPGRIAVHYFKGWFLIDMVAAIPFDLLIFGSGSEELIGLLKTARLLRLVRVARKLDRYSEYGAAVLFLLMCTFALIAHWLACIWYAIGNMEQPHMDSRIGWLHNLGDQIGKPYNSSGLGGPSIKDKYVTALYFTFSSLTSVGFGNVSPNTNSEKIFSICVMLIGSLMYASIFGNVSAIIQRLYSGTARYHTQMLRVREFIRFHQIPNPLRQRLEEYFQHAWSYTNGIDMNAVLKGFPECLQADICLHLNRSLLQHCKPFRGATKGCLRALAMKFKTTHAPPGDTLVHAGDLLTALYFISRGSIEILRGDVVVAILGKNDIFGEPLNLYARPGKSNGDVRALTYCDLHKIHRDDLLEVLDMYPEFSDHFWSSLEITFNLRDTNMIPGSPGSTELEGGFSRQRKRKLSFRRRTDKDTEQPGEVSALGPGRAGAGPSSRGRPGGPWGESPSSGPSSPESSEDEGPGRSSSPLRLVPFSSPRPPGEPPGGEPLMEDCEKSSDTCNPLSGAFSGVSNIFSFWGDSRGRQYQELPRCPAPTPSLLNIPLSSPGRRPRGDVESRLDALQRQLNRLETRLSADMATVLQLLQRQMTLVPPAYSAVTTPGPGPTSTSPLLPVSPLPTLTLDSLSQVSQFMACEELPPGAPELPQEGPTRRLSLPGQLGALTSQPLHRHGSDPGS

In order of rising “hERG current change (%, negative = inhibition) at 10uM” value:
1. CCOC(=O)C1(CCCc2ccccc2)CCN(Cc2cnc(C)s2)CC1  -73.1%
2. Cc1ccc(C)c(-n2cc(CNCCCn3cccn3)c(-c3ccccc3)n2)c1  -64.9%
3. O=C(c1ccccc1)N1CCN(CC(O)COc2ccc(Br)cc2)CC1 (stereo not drawn)  -64.9%
4. COc1ccc(S(=O)(=O)NCC2CCCO2)cc1NC(=O)c1ccc(Cl)cc1 (stereo not drawn)  -54%
5. CCCN1CCN(C(=O)CCS(=O)(=O)c2cc3c(cc2Cl)NC(=O)CO3)CC1  -48%
6. COc1ccc(C(CNCC(O)COc2c(C)ccc(C)c2C)N(C)C)cc1 (stereo not drawn)  -44.1%
7. COCCN(CC(=O)Nc1cc(Cl)ccc1-n1cncn1)Cc1nc2ccccc2c(=O)[nH]1  -43%
8. O=C(NCCSc1ncc(-c2ccc(F)cc2)[nH]1)c1ccco1  -37.1%
9. Cc1nc(-c2nc(-c3c(C(=O)NNC(=O)c4ccc(Cl)cc4)noc3C)cs2)cs1  -35.1%
10. CCOC(=O)C1CCN(S(=O)(=O)c2ccc3c(c2)CC(=O)N3)CC1  -32.5%
11. O=C(COc1coc(CN2CCc3ccccc3C2)cc1=O)Nc1ccc([N+](=O)[O-])cc1  -31.7%
12. COc1cc(CN(C)Cc2cc(=O)n3ccsc3n2)ccc1OC(F)F  -28.1%
13. COc1ccc(S(=O)(=O)NNC(=O)Nc2ccc(C)cc2)c(OC)c1  -20.9%
14. O=C(COc1ccccc1)N(Cc1cccs1)C1CCS(=O)(=O)C1 (stereo not drawn)  -17.4%
15. O=S(=O)(c1ccc(SCCOc2ccccc2)nc1)N1CCCC1  -16.8%
16. CC(/C=C/c1ccco1)=N\NC(=O)COc1ccc(C)c(C)c1  -15.6%
17. O=C(NNC(=O)c1ccccc1F)c1ccc(-c2ccc(Cl)cc2)o1  -14.2%
18. CCOC(=O)c1c(-c2ccccc2)csc1NC(=O)/C(C#N)=C/c1ccc(OC)c(OC)c1  -13.7%
19. Cc1ccc(NC(=O)COC(=O)CCc2ccc(S(=O)(=O)N3CCOCC3)cc2)c(C)c1  -9.5%
20. COc1cccc(NC(=O)COC(=O)CNS(=O)(=O)c2c(F)cccc2F)c1  -8.24%
21. Cn1cccc1/C=N/NC(=O)c1cc(-c2cccs2)nc2ccccc12  -7.93%
22. Cn1c(CNC2CCCCC2)c(C#N)c2ccccc21  -7.39%
23. O=C(NCc1ccncc1)C1COc2ccccc2O1 (stereo not drawn)  -6.92%
24. CN1CCN(S(=O)(=O)c2ccc(Br)c3ccccc23)CC1  -6.71%
25. Cc1ccccc1NC(=O)NNC(=O)OC(C)(C)C  -6.37%
26. COc1cccc2c(=O)n(CC(=O)N3CCC(C)CC3)ccc12  -6.17%
27. CCCS(=O)(=O)c1c(S(=O)(=O)CCC)c2cnccn2c1C(=O)c1ccc(F)cc1  -6.13%
28. CC1(C)CC(=O)C2=C(C1)N(c1cccnc1)C(N)=C(C#N)C2c1cccs1 (stereo not drawn)  -5.86%
29. COc1ccccc1/C=C1\SC(=O)N(CC(=O)NCCCn2ccnc2)C1=O  -3.76%
30. COCc1nnc(SCC(=O)NCc2ccccc2)n1-c1ccccc1  -3.33%
31. CCN1/C(=C2\OC(=S)N(C)C2=O)Sc2ccccc21  -2.13%
32. Cc1ccsc1C(=O)N(C)CC(=O)N(CC(C)C)c1c(N)n(CC(C)C)c(=O)[nH]c1=O  -1.64%
33. CC(C)C[C@H](NC(=O)OC(C)(C)C)C(=O)N/N=C/C1=Cc2ccccc2OC1C (stereo partly drawn)  -0.94%
34. O=C(O)c1ccn[nH]1  -0.906%
35. COC(=O)CCN(C(=O)c1cccc([N+](=O)[O-])c1)c1ccccn1  -0.262%
36. O=S(=O)(/N=C(/Nc1cc(N2CCOCC2)ncn1)c1ccc(F)cc1)c1ccccc1  0.844%
37. CCOC(=O)C(Cc1ccccc1)NC(=O)CCCC(=O)c1ccccc1 (stereo not drawn)  0.911%
38. COc1ccc(N2CCN(CC(=O)NCc3ccccc3)CC2)cc1  0.922%
39. COc1ccccc1/C=C/C(=O)OCC(=O)NCc1ccco1  1.61%
40. COc1ccc(N2CCN(C(=O)COC(=O)CNC(=O)c3ccccc3)CC2)cc1  1.95%
41. COc1cccc(CNC(=O)CSc2ccc(-c3ccco3)nn2)c1  2.15%
42. O=C(CSc1nnc(CNc2ccc(F)cc2)o1)N1CCCc2ccccc21  2.24%
43. CCOC(=O)/C=C/COc1ccccc1[N+](=O)[O-]  2.48%
44. Cc1[nH]c2ccccc2c1/C=N\NC(=O)CNc1ccc2c(c1)OCO2  2.88%
45. CC(C)N(Cc1cnn(C)c1)Cc1nc(COc2ccccc2)no1  2.96%
46. CC1CC(C)CN(C(=O)C2CCC(CNc3c(N4CCCCC4)c(=O)c3=O)CC2)C1 (stereo not drawn)  3.42%
47. O=C(CCC1CCCN(C(=O)c2ccco2)C1)NCc1ccccc1F (stereo not drawn)  3.58%
48. CCOC(=O)CNC(=O)C1Cc2ccccc2CN1S(=O)(=O)c1cccs1 (stereo not drawn)  4.79%
49. COc1ccc(CCNc2nc(-c3ccc(O)cc3)cs2)cc1OC  4.8%
50. COc1cc(/C=N/n2c(C)n[nH]c2=S)ccc1OCc1ccccc1  5.01%
51. CC(=O)c1cccc(N2C(=O)C3C(C(=O)Nc4cc(C)on4)C4(C)C=CC3(O4)C2C(=O)NC(C)(C)C)c1 (stereo not drawn)  6%
52. Cc1cc(CSc2ccccc2)ccc1NC(=O)c1cccc([N+](=O)[O-])c1  6.9%
53. Cc1ccc(S(=O)(=O)N(C)Cc2ccc(-c3nnco3)cc2)cc1  7.53%
54. CC(=O)Nc1ccc(C(=O)COC(=O)CCS(=O)(=O)c2ccccc2)cc1  7.74%
55. COc1ccc(N(C)S(=O)(=O)c2c(C)noc2C)c(OC)c1  8.45%
56. O=C(CCC(=O)Nc1ccccc1)NNC(=O)c1ccco1  8.99%
57. [O-]/C(=C(\C(=S)NCCN1CCOCC1)[n+]1ccccc1)c1ccc(Cl)s1  9.04%
58. CCCCC(=O)Nc1nc2ccc3nc(C)sc3c2s1  9.37%
59. CN1C(=O)S/C(=C/c2ccccc2OCc2ccc(C(=O)O)cc2)C1=O  10%
60. Cc1cc(C)n(-c2ccc(C(=O)OCc3nnc(-c4ccccc4)o3)cc2)n1  10%
61. COC(=O)c1sc(NC(=O)CSc2nc3cccnc3n2C2CCCCC2)nc1C  10.1%
62. O=C(Cc1ccc(F)cc1)Nc1nnc(-c2ccc(F)cc2)o1  10.9%
63. N#CC1=C2SCN(c3ccccc3)CN2C(=O)CC1c1cccs1 (stereo not drawn)  11.2%
64. Cn1c(N)c(C(=O)COC(=O)C2=COCCO2)c(=O)n(C)c1=O  11.6%
65. C(CCc1nn[nH]n1)CCc1nn[nH]n1  11.9%
66. CCOc1ccc2nc(SC3CC(=O)N(c4ccccc4)C3=O)sc2c1 (stereo not drawn)  12.5%
67. N#Cc1c(Nc2ccccc2)s[nH]c1=O  12.5%
68. NS(=O)(=O)c1ccc(-n2nc(C(=O)O)cc2-c2ccc(Cl)cc2)cc1  12.6%
69. CCOC(=O)c1cc2c(=O)[nH]ccc2nc1C  13%
70. c1ccc(-n2ncc3c2ncn2nc(-c4ccco4)nc32)cc1  13.3%
71. NC(=O)c1c(NC(=O)COC(=O)c2ccc(S(=O)(=O)Nc3ccccc3)cc2)sc2c1CCCC2  13.6%
72. Cc1noc(C)c1CN1C(=O)c2ccccc2C1=O  13.6%
73. CCOC(=O)CN(c1cc([N+](=O)[O-])ccc1OC)S(C)(=O)=O  14.1%
74. CC(NC(=O)CCc1nnc(C2CCCCC2)o1)c1ccc(F)cc1 (stereo not drawn)  14.9%
75. CCOc1cc(C(=S)N2CCN(C)CC2)ccc1OCC(=O)N1CCCC1  16%
76. O=C(Cn1nc(C(F)F)cc1C(F)F)NNC(=S)Nc1ccc(F)cc1  17.4%
77. COc1ccc(C)cc1N(CC(=O)N/N=C/c1ccccc1C(=O)O)S(=O)(=O)c1ccccc1  18.2%
78. CCOc1ccccc1C1C(C(N)=O)=C(C)Nc2nc(CCCO)nn21 (stereo not drawn)  18.4%
79. COc1ccc(CNC(=O)c2ccc3c(=O)n(CCCN4CCCC4=O)c(=S)[nH]c3c2)cc1  19%
80. O=S(=O)(c1ccccc1)N1CCCN(S(=O)(=O)c2ccccc2)CC1  20.3%
81. CCc1c(C)nc2cc(-c3ccc(OC)c(OC)c3)nn2c1N1CCC(C)CC1  21%
82. COc1ccc(C)cc1N(CC(=O)N1CCOCC1)S(C)(=O)=O  21.2%
83. CCc1cc(=O)oc2c3c(cc(OCC(=O)N[C@H](C(=O)O)[C@H](C)CC)c12)OC(C)(C)CC3  23.8%
84. CCN(CC)CCNc1nc(-c2cccs2)c(CC(=O)O)s1.O=C(O)C(=O)O  24.1%
85. O=C(Nn1cnc2ccccc2c1=O)c1c(F)cccc1F  25.8%
86. O=C1N(c2ccc(Cl)cc2)C(c2ccccc2)N2CCCN12 (stereo not drawn)  26.2%
87. COc1ccc(CN2C(=O)C(C)N(C(=O)c3c(F)cccc3F)c3ccccc32)cc1 (stereo not drawn)  28.7%
